{"source": "PubChem BioAssay AID686978", "about": "(National Center for Advancing Translational Sciences (NCATS), 2013)", "note": "Where “and” joins values, the source holds several entries; their conditions need not be identical. Equal values may be shown once. Hit rate of the full screen: of about 420,000 compounds, about 64,000 (15%) were called active. The inconclusive results got no clear call from the source; some entries with a clear call stand among them for comparison. Calls follow the shape of the dose curve; as a rule, active = well fitted inhibition curve with a large enough effect; inconclusive = small, poorly fitted or top-dose-only effect; inactive = flat fitted curve, though single readings scatter. Potencies beside an inconclusive call are fits to weak or partial responses and may not hold up. % is scaled to controls: 0 for no effect and ±100 for the full control effect; potency is read from the fitted curve at half-maximal effect; tags tell the direction and shape of the fitted curve.", "data": [{"experiment": "qHTS for Inhibitors of human tyrosyl-DNA phosphodiesterase 1 (TDP1): qHTS in cells in absence of CPT; also: nearly all actives have a fitted effect of over 55% in size", "conditions": "DT40 Tdp1-/- hTDP1 cells, no CPT, ATP luminescence, 48 h; activity change, negative = growth inhibition: at 46.2 µM (top of the series) unless noted", "outline": "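Chicken DT40 Tdp1-/- cells complemented with human TDP1, screened without camptothecin (DMSO vehicle only), 400 cells/well. Compounds pin-transferred, cells incubated at 37 °C for at least 48 hr. Growth read as ATP-dependent luminescence (CellTiter-Glo, 30 min at RT).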", "values": [{"molecule": "CCON=O", "Potency": "inconclusive: 0.0053 µM [inhibitor, full curve, poor fit]"}, {"molecule": "CCc1ccccc1N1C(=O)N(Cc2ccccc2C)c2ccccc2S1(=O)=O", "Potency": "active: 16.4 µM"}, {"molecule": "Oc1c(Cl)cc(Cl)cc1CN1CCN(Cc2ccccc2)CC1", "activity change, negative = growth inhibition": "inactive: -23.9%"}, {"molecule": "Cc1ccc(S(=O)(=O)N2CN3CCN(C3)C2)cc1", "Potency": "inconclusive: 18.4 µM [inhibitor, single point]"}, {"molecule": "O=C1/C(=C/c2ccc3c(c2)OCO3)SC(=S)N1CCC(=O)N(CCO)c1ccccc1", "Potency": "inconclusive: 18.4 µM [inhibitor, single point]"}, {"molecule": "CC1CC(C)C(=O)[C@H](C(O)CC2CC(=O)NC(=O)C2)C1", "note": "(some centres not stated)", "Potency": "active: 0.0731 µM"}, {"molecule": "COC(=O)C1=C(c2ccc(-c3ccccc3)c(F)c2)C[C@@H]2CC[C@H]1N2C(=O)NC1CC1", "Potency": "active: 9.2 µM"}, {"molecule": "O=C1C2CCN(CC2)C1Cc1ccc(OCCOc2ccccc2)cc1", "note": "(configuration not stated)", "Potency": "inconclusive: 16.4 µM [inhibitor, partial curve, poor fit]"}, {"molecule": "CC(=O)c1cccc(OCC(=O)N2CCN(CC(=O)Nc3cccc(F)c3)CC2)c1", "Potency": "inconclusive: 16.4 µM [inhibitor, single point]"}, {"molecule": "CCOC(=O)c1cccc(C2=C(CNC(=O)c3ccc([N+](=O)[O-])cc3)[C@H]3CC[C@@H](C2)N3Cc2ccccc2)c1", "Potency": "inconclusive: 23.1 µM [inhibitor, single point]"}, {"molecule": "COc1cc2[nH]c(=O)n(CCCCCC(=O)N3CCN(c4cccc(C(F)(F)F)c4)CC3)c(=O)c2cc1OC", "Potency": "active: 6.51 µM"}, {"molecule": "O=c1[nH]c(CN2CC=C(c3ccccc3)CC2)nc2scc(-c3cccs3)c12", "Potency": "inconclusive: 25.9 µM [inhibitor, single point]"}, {"molecule": "Fc1ccc2c(c1)nnn2C1CCN(Cc2nnnn2C2CCCCC2)CC1", "activity change, negative = growth inhibition": "inactive: -20%"}, {"molecule": "CCN1CCN(c2ncnc3ccc(Br)cc23)CC1", "Potency": "inconclusive: 16.4 µM [inhibitor, partial curve]"}, {"molecule": "COC(=O)C1=C(c2cccc(C#N)c2)C[C@@H]2CC[C@H]1N2C(=O)NCc1cccc2ccccc12", "activity change, negative = growth inhibition": "inactive: -28.8%"}, {"molecule": "CC/C(=N\\NC(=O)c1ccccc1)c1c(O)n(C2CCCCC2)c(=O)[nH]c1=O", "activity change, negative = growth inhibition": "inactive: -15.1%"}, {"molecule": "CC[C@@]1(O)C(=O)OCc2c1cc1n(c2=O)Cc2cc3c(NC(=O)CN)cccc3nc2-1", "Potency": "active: 0.411 µM"}, {"molecule": "Cc1c2ccncc2c(C)c2c1[nH]c1ccccc12", "Potency": "active: 1.46 µM"}, {"molecule": "CCOc1ccccc1NC(=O)c1cccn(Cc2ccccc2C)c1=O", "activity change, negative = growth inhibition": "inactive: 0.747%"}, {"molecule": "O=C(C1CCCCC1)N1Cc2ccccc2-n2nncc2C1", "activity change, negative = growth inhibition": "inactive: -111%"}, {"molecule": "CC(=O)c1ccc(OC(C)C)c(Cc2c(O)[nH]c(=S)[nH]c2=O)c1", "activity change, negative = growth inhibition": "inactive: 11.4%"}, {"molecule": "CCSc1nnc(NC(=O)c2cccn(Cc3ccccc3Cl)c2=O)s1", "activity change, negative = growth inhibition": "inactive: 10.7%"}, {"molecule": "C[N+]1(CC(COCc2ccccc2)OC(=O)Cc2ccccc2)CCOCC1", "note": "(configuration not stated)", "activity change, negative = growth inhibition": "inactive: -3.44%"}, {"molecule": "CCn1c(O)c(/C=N/NC(=O)c2ccncc2)c(=O)[nH]c1=S", "activity change, negative = growth inhibition": "inactive: -13.5%"}, {"molecule": "O=C(CN1CC(c2ccccc2)CC1=O)Nc1ccc(F)cc1", "note": "(configuration not stated)", "activity change, negative = growth inhibition": "inactive: -14.9%"}, {"molecule": "COc1ccccc1CNC(=O)CCC1N=C2c3ccccc3N=C(SCc3cccc(Cl)c3)N2C1=O", "note": "(configuration not stated)", "Potency": "inconclusive: 18.4 µM [inhibitor, single point]"}, {"molecule": "COc1ccc(Br)cc1CNCCc1ccc2c(c1)OCO2", "Potency": "inconclusive: 20.6 µM [inhibitor, single point]"}, {"molecule": "Cc1nc2ccccc2c(=O)n1-c1ccc(C(=O)O)cc1", "activity change, negative = growth inhibition": "inactive: 23.6%"}, {"molecule": "COc1cc2nc(N3CCCN(C)CC3)nc(N(C)C3CCN(C)CC3)c2cc1OC", "Potency": "active: 6.31 µM"}, {"molecule": "COc1ccc(-n2c(C)cc(C(=O)C[N+]34CCN(CC3)CC4)c2C)cc1", "Potency": "inconclusive: 29.1 µM [inhibitor, single point]"}, {"molecule": "CC(=O)c1cn(CC(=O)NCCc2c[nH]c3ccccc23)c2ccccc12", "Potency": "active: 23.1 µM"}, {"molecule": "COc1ccc(NC(=O)CCn2cc(C)c3ccccc32)cc1", "Potency": "inconclusive: 29.1 µM [inhibitor, single point]"}, {"molecule": "Cc1ccc(NC(=O)CN2C(=O)CN=C(c3ccccc3)c3ccccc32)cc1Cl", "Potency": "inconclusive: 16.4 µM [inhibitor, single point]"}, {"molecule": "CCC1(c2cnc[nH]2)Cc2ccccc2C1", "Potency": "inconclusive: 15 µM [inhibitor, single point] and inconclusive: 33.5 µM [inhibitor, single point]"}, {"molecule": "CC(=O)OC1CC[C@@]2(C)C(=CC(=O)C3C4CCC(OC(C)=O)[C@@]4(C)CCC32)C1", "note": "(some centres not stated)", "Potency": "inconclusive: 29.1 µM [inhibitor, single point]"}, {"molecule": "Cc1ccc2c(c1)C1CN(C)CCC1N2C(=O)c1cn(-c2ccccc2)nc1-c1ccccc1", "note": "(configuration not stated)", "Potency": "active: 16.4 µM"}, {"molecule": "COc1cccc(CNCCc2c[nH]c3ccccc23)c1", "Potency": "inconclusive: 9.2 µM [inhibitor, partial curve]"}, {"molecule": "CCOC(=O)C(O)(c1ccc(NC(=O)c2ccc(Cl)c(Cl)c2)cc1)C(F)(F)F", "note": "(configuration not stated)", "Potency": "active: 16.4 µM"}, {"molecule": "CN1CCN(C(=O)COc2ccc(S(=O)(=O)Nc3ccc(F)cc3)cc2)CC1", "activity change, negative = growth inhibition": "inactive: 16.7%"}, {"molecule": "N=C1c2ccccc2CN1c1cccc([N+](=O)[O-])c1", "activity change, negative = growth inhibition": "inactive: 8.73%"}, {"molecule": "C=CCc1ccccc1OCCn1c(C2CC(=O)N(Cc3ccc(F)cc3)C2)nc2ccccc21", "note": "(configuration not stated)", "Potency": "inconclusive: 18.4 µM [inhibitor, single point]"}, {"molecule": "C=CCN1CCC2(C)c3cc(O)ccc3CC1C2C", "note": "(configuration not stated)", "Potency": "inconclusive: 23.1 µM [inhibitor, single point]"}, {"molecule": "Cc1ccc(C)c(N2CCN(C(=O)c3cccn4c(=O)c5ccccc5nc34)CC2)c1", "Potency": "inconclusive: 18.4 µM [inhibitor, single point]"}, {"molecule": "COc1cc([C@@H]2c3cc4c(c(O)c3C[C@H]3COC(=O)[C@@H]32)OCO4)cc(OC)c1OC", "Potency": "active: 0.126 µM"}, {"molecule": "O=C1NC(=O)N(CCC2=CCCCC2)C(=O)/C1=C/c1cccs1", "activity change, negative = growth inhibition": "inactive: -29%"}, {"molecule": "O=C(N/N=C/c1c(O)n(C2CCCCC2)c(=S)[nH]c1=O)c1ccccc1O", "Potency": "inconclusive: 16.4 µM [inhibitor, single point]"}, {"molecule": "CC(C)Oc1cccc(C(=O)C2CCCN(C3CCOCC3)C2)c1", "note": "(configuration not stated)", "Potency": "inconclusive: 16.4 µM [inhibitor, partial curve, poor fit]"}]}]}
